Source: PMC4336329 (PLoS ONE, 2015)
Hit rate of the full screen: of about 310,000 compounds, about 2,200 (0.71%) showed an effect of 50% or more. The effect is printed as a negative number. The list shows a part of the results.

The compounds below were run against human ether-à-go-go-related gene (hERG) potassium channel (human, UniProt Q12809) (assay: primary screen, population patch clamp on CHO cells stably expressing hERG).
human ether-à-go-go-related gene (hERG) potassium channel, sequence (Q12809 whole entry, looked up): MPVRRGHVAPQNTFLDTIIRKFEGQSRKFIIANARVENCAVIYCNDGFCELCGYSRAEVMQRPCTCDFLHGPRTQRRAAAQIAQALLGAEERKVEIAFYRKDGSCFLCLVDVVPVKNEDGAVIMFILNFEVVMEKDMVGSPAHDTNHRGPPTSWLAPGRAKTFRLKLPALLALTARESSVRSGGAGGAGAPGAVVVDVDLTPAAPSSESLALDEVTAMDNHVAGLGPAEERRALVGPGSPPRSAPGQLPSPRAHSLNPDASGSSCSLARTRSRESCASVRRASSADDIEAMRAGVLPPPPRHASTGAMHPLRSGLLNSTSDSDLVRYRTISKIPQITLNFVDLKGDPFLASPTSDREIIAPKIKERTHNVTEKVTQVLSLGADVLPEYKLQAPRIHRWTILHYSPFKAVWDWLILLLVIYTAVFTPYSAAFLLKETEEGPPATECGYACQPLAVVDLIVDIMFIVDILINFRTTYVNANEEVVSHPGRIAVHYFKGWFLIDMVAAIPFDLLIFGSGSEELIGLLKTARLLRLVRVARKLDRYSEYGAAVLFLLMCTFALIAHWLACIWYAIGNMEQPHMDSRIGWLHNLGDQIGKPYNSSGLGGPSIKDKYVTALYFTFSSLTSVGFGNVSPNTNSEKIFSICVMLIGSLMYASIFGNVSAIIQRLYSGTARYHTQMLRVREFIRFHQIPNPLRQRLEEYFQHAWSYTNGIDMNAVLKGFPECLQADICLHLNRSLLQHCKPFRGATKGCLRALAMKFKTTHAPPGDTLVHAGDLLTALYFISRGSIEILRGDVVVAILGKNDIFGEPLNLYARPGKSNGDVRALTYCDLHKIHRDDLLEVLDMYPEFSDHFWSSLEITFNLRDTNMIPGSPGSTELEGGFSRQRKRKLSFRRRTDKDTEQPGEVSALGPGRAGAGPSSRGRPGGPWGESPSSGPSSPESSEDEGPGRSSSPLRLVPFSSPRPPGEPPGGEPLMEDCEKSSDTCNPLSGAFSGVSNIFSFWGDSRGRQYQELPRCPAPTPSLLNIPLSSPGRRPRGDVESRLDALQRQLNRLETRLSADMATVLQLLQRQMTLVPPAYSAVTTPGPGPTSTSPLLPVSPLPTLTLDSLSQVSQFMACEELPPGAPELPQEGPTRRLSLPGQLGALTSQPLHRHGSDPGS

SMILES	hERG current change (%, negative = inhibition) at 1uM [%]
CC(=O)NC(c1cccs1)c1cc(Cl)c2ccccc2c1O (stereo not drawn)	3.34
CCOC(=O)c1c(C)[nH]c(C(=O)C(C)Sc2ccc(Cl)cc2)c1C (stereo not drawn)	9.6
COc1ccc(NC(=O)CSc2nnc(NC(=O)c3ccc(S(=O)(=O)N4CCOCC4)cc3)s2)cc1	20.2
CCCc1ccc(O)c(N=Cc2cc(Br)cc(OCC)c2O)c1	-9.54
Cn1c(=O)c2c(nc(SCC(=O)NCc3ccc4c(c3)OCO4)n2Cc2ccccc2)n(C)c1=O	-3.75
Cc1nnc(SCC(=O)N2CCN(c3cccc(Cl)c3)CC2)n1C1CC1	1.99
COc1cccc(CN(C)C(=O)c2cc(-c3ccc(F)cc3)nc3ccccc23)c1	9.71
COc1ccc(CNC(=O)CCn2c(C)csc2=O)cc1	5.75
CN1CCN(NC(=O)c2cc(Br)ccc2Cl)CC1	11.9
O=C1CCN(C(=S)NCCc2ccccc2)CC1	6.51
COc1cccc(OC)c1C(=O)NC(=O)NNc1cc(C(F)(F)F)cc(C)n1	8.5
CC1Cc2ccccc2N1C(=O)CSc1nnc(Cn2nnc3ccccc32)n1C (stereo not drawn)	-5.43
O=C1OC2CCC1(c1ccccc1)C2 (stereo not drawn)	13.2
COCCOC(=O)c1c(N)n(Cc2ccco2)c2nc3ccccc3nc12	-16.5
COc1cc(COC(=O)c2cnc(C)cn2)c(OC)cc1Br	24.3
N#C/C(=C\Nc1ccc(Cl)cn1)S(=O)(=O)c1ccccn1	14.6
CC1(C)OC(=O)C(=NNc2ccc(Br)cc2)C(=O)O1	4.08
COc1ccc(-c2cn(CCO)c(-c3ccc(Cl)nc3)n2)cc1	4.56
O=C(O)C1CCN(C(=O)Cc2ccccc2)CC1	15.5
COc1cc2c(cc1NC(=O)c1ccc(C)c([N+](=O)[O-])c1)oc1ccccc12	8.7
CC1CCCC(NC(=O)COC(=O)c2cn(C)c3ccccc23)C1C (stereo not drawn)	12.6
O=c1cc(-c2ccccc2Cl)c2c([nH]1)CCC2	19.2
CCOc1cc(C)nc(Oc2ccc(=O)[nH]n2)n1	6.64

SMILES	hERG current change (%, negative = inhibition) at 1uM [%]
CCOc1cc(/C=C(\C(=O)O)c2ccc(S(=O)(=O)N3CCCC3)s2)ccc1OC	11.3
COC(=O)c1cc2sccc2n1CC(=O)N1CCCc2ccccc21	-4.85
CCCCOc1ccc(CSCCNC(=S)Nc2ccccc2)cc1	11.9
COc1cc(OC)cc(C(=O)N2CCN(Cc3cccc(F)c3)CC2)c1.O=C(O)C(=O)O	-4.24
Cc1cccc2sc(NNC(=O)c3cc(-c4cccs4)nc4ccccc34)nc12	11
Cc1cc(Br)ccc1NC(=O)CN(C)C(=O)CCSc1ccc(F)cc1	10.9
COc1ccc(C2=NCCc3cc(OC)c(OC)cc32)cc1OC	7.59
O=C(Nc1ccc(CN2CCCCC2)cc1)c1sc2ccccc2c1Cl	11.6
N=c1c(S(=O)(=O)c2ccccc2)cc2c(=O)n3ccccc3nc2n1Cc1ccco1	18.6
COc1ccc(CNC(=O)CCC(=O)N2C[C@H]3C[C@H](C2)c2cccc(=O)n2C3)cc1OC	9.12
Cc1nn(C)c(=O)n1-c1ccc(Oc2ccccc2)cc1	13.7
CC1CC(=O)N(CC(=O)NCc2ccccc2)c2ccccc2S1(=O)=O (stereo not drawn)	10.8
CC(C)(C)c1cc(C(=O)N/N=C/c2ccc(F)cc2)n(-c2ccccc2)n1	-6.32
COc1ccc(OCC(=O)N2CCN(C(=O)c3ccco3)CC2)cc1	-14.5
Cc1cc(=O)[nH]c(COc2ccccc2)n1	13
Cc1cc(C)cc(-c2nnc(SCC(=O)c3ccc4c(c3)OCCO4)o2)c1	16
C=CCOc1ccc(C2NC(=S)NC3=C2CCc2ccccc23)cc1 (stereo not drawn)	4.53
O=S(=O)(Nc1cccc(-c2cn3cccnc3n2)c1)c1ccc(Cl)cc1	6.74
Cc1[nH]n(-c2cccc3ccccc23)c(=O)c1C=Nc1ccc2[nH]c(=O)[nH]c2c1	9.98
O=S(=O)(c1ccc(Cl)cc1)N1CCN2CCCC2C1 (stereo not drawn)	10.5
O=C(CCN1C(=O)/C(=C/c2ccc(F)cc2)SC1=S)NNC(=O)c1cccnc1	1.06
Cc1nn(C)c(N)c1-c1ccccc1	3.31
